# The supplement of paper PMC8728848
# The list shows a part of the results.
# B1: Siglec-E (Mus musculus), Q91Y57 (protein)
# chain: MLLLLLLLLLWGIKGVEGQNPQEVFTLNVERKVVVQEGLCVLVPCNFSYLKKRLTDWTDSDPVHGFWYREGTDRRKDSIVATNNPIRKAVKETRNRFFLLGDPWRNDCSLNIREIRKKDAGLYFFRLERGKTKYNYMWDKMTLVVTALTNTPQILLPETLEAGHPSNLTCSVPWDCGWTAPPIFSWTGTSVSFLSTNTTGSSVLTITPQPQDHGTNLTCQVTLPGTNVSTRMTTRLNVSYAPKNLTVTIYQGADSVSTILKNGSSLPISEGQSLRLICSTDSYPPANLSWSWDNLTLCPSKLSKPGLLELFPVHLKHGGVYTCQAQHALGSQHISLSLSPQSSATLSEMMMGTFVGSGVTALLFLSVCILLLAVRSYRRKPARPAVVAPHPDALKVSVSQNPLVESQADDSSEPLPSILEAAPSSTEEEIHYATLSFHEMKPMNLWGQQDTTTEYSEIKFPQRTAWP
# What was measured:
# Assay in all cases: glycan array binding signal (z-score within array); higher = stronger binding
# Conditions in all cases: glycan notation: IUPAC condensed, linker removed
# [1] = target: Fuc(a1-2)[Gal(a1-3)]Gal(b1-4)GlcNAc(b1-2)Man(a1-3)[Fuc(a1-2)[Gal(a1-3)]Gal(b1-4)GlcNAc(b1-2)Man(a1-6)]Man(b1-4)GlcNAc(b1-4)GlcNAc
# In short: (§1)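 The binding signal is a Z-score computed within each array. Data were drawn from 3228 arrays in the Consortium for Functional Glycomics database, restricted to those with a known protein sequence. Scores were averaged over arrays of the same protein sequence at different concentrations or buffers, and over linkers, and negative values can be taken as non-binding.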
# [2] = target: Fuc(a1-2)[Gal(a1-3)]Gal(b1-4)GlcNAc(b1-2)Man(a1-3)[Fuc(a1-2)[Gal(a1-3)]Gal(b1-4)GlcNAc(b1-2)Man(a1-6)]Man(b1-4)GlcNAc(b1-4)[Fuc(a1-6)]GlcNAc
# In short: as §1
# [3] = target: Fuc(a1-2)[Gal(a1-3)]Gal(b1-4)GlcNAc(b1-3)GalNAc
# In short: as §1
# [4] = target: Fuc(a1-2)[Gal(a1-3)]Gal(b1-4)GlcNAc(b1-3)[Fuc(a1-2)[Gal(a1-3)]Gal(b1-4)GlcNAc(b1-6)]GalNAc
# In short: as §1
# [5] = target: Fuc(a1-2)[Gal(a1-3)]Gal(b1-4)GlcNAc(b1-6)GalNAc
# In short: as §1
# [6] = target: Fuc(a1-2)[Gal(a1-3)]Gal(b1-4)[Fuc(a1-3)]Glc
# In short: as §1
# [7] = target: Fuc(a1-2)[Gal(a1-3)]Gal(b1-4)[Fuc(a1-3)]GlcNAc
# In short: as §1
# [8] = target: Fuc(a1-2)[Gal(a1-3)]Gal(b1-4)[Fuc(a1-3)]GlcNAc(b1-3)GalNAc
# In short: as §1
# [9] = target: Fuc(a1-2)[Gal(a1-4)]Gal(b1-4)GlcNAc
# In short: as §1
# [10] = target: Fuc(a1-2)[GalNAc(a1-3)]Gal
# In short: as §1
# [11] = target: Fuc(a1-2)[GalNAc(a1-3)]Gal(b1-3)GalNAc(a1-3)[Fuc(a1-2)]Gal(b1-4)GlcNAc
# In short: as §1
# [12] = target: Fuc(a1-2)[GalNAc(a1-3)]Gal(b1-3)GalNAc(b1-3)Gal(a1-4)Gal(b1-4)Glc
# In short: as §1
# [13] = target: Fuc(a1-2)[GalNAc(a1-3)]Gal(b1-3)GlcNAc
# In short: as §1
# [14] = target: Fuc(a1-2)[GalNAc(a1-3)]Gal(b1-3)GlcNAc(b1-2)Man(a1-3)[Fuc(a1-2)[GalNAc(a1-3)]Gal(b1-3)GlcNAc(b1-2)Man(a1-6)]Man(b1-4)GlcNAc(b1-4)GlcNAc
# In short: as §1
# [15] = target: Fuc(a1-2)[GalNAc(a1-3)]Gal(b1-3)GlcNAc(b1-2)Man(a1-3)[Fuc(a1-2)[GalNAc(a1-3)]Gal(b1-3)GlcNAc(b1-2)Man(a1-6)]Man(b1-4)GlcNAc(b1-4)[Fuc(a1-6)]GlcNAc
# In short: as §1
# [16] = target: Fuc(a1-2)[GalNAc(a1-3)]Gal(b1-3)GlcNAc(b1-3)GalNAc
# In short: as §1
# [17] = target: Fuc(a1-2)[GalNAc(a1-3)]Gal(b1-3)GlcNAc(b1-6)GalNAc
# In short: as §1
# [18] = target: Fuc(a1-2)[GalNAc(a1-3)]Gal(b1-4)Glc
# In short: as §1
# [19] = target: Fuc(a1-2)[GalNAc(a1-3)]Gal(b1-4)GlcNAc
# In short: as §1
# [20] = target: Fuc(a1-2)[GalNAc(a1-3)]Gal(b1-4)GlcNAc(b1-2)Man
# In short: as §1
# [21] = target: Fuc(a1-2)[GalNAc(a1-3)]Gal(b1-4)GlcNAc(b1-2)Man(a1-3)[Fuc(a1-2)[GalNAc(a1-3)]Gal(b1-4)GlcNAc(b1-2)Man(a1-6)]Man(b1-4)GlcNAc(b1-4)GlcNAc
# In short: as §1
# [22] = target: Fuc(a1-2)[GalNAc(a1-3)]Gal(b1-4)GlcNAc(b1-2)Man(a1-3)[Fuc(a1-2)[GalNAc(a1-3)]Gal(b1-4)GlcNAc(b1-2)Man(a1-6)]Man(b1-4)GlcNAc(b1-4)[Fuc(a1-6)]GlcNAc
# In short: as §1
# [23] = target: Fuc(a1-2)[GalNAc(a1-3)]Gal(b1-4)GlcNAc(b1-3)Gal(b1-4)GlcNAc
# In short: as §1
# [24] = target: Fuc(a1-2)[GalNAc(a1-3)]Gal(b1-4)GlcNAc(b1-3)Gal(b1-4)GlcNAc(b1-3)Gal(b1-4)GlcNAc
# In short: as §1
# [25] = target: Fuc(a1-2)[GalNAc(a1-3)]Gal(b1-4)GlcNAc(b1-3)GalNAc
# In short: as §1
# [26] = target: Fuc(a1-2)[GalNAc(a1-3)]Gal(b1-4)GlcNAc(b1-3)[Fuc(a1-2)[GalNAc(a1-3)]Gal(b1-4)GlcNAc(b1-6)]GalNAc
# In short: as §1
# [27] = target: Fuc(a1-2)[GalNAc(a1-3)]Gal(b1-4)GlcNAc(b1-6)GalNAc
# In short: as §1
# [28] = target: Fuc(a1-2)[GalNAc(a1-3)]Gal(b1-4)[Fuc(a1-3)]GlcNAc
# In short: as §1
# [29] = target: Fuc(a1-2)[GalNAc(a1-3)]Gal(b1-4)[Fuc(a1-3)]GlcNAc(b1-3)GalNAc
# In short: as §1
# [30] = target: Fuc(a1-2)[GalNAc(a1-4)]Gal(b1-4)GlcNAc
# In short: as §1
# [31] = target: Fuc(a1-2)[GalNAc(b1-3)]Gal
# In short: as §1
# Fuc(a1-3)GlcNAc = target: Fuc(a1-3)GlcNAc
# In short: as §1
# [32] = target: Fuc(a1-3)[Gal(b1-4)]Glc6S
# In short: as §1
# [33] = target: Fuc(a1-3)[Gal(b1-4)]GlcNAc
# In short: as §1
# [34] = target: Fuc(a1-3)[Gal(b1-4)]GlcNAc(b1-2)Man
# In short: as §1
# [35] = target: Fuc(a1-3)[Gal(b1-4)]GlcNAc(b1-2)Man(a1-3)[Fuc(a1-3)[Gal(b1-4)]GlcNAc(b1-2)Man(a1-6)]Man(b1-4)GlcNAc(b1-4)GlcNAc
# In short: as §1
# [36] = target: Fuc(a1-3)[Gal(b1-4)]GlcNAc(b1-2)Man(a1-3)[Fuc(a1-3)[Gal(b1-4)]GlcNAc(b1-2)Man(a1-6)]Man(b1-4)GlcNAc(b1-4)[Fuc(a1-6)]GlcNAc
# In short: as §1
binder,measurement,setting,value
B1,glycan array binding signal (z-score),[1],-0.367
same,glycan array binding signal (z-score),[2],3.5
same,glycan array binding signal (z-score),[3],-0.33
same,glycan array binding signal (z-score),[4],5.58
same,glycan array binding signal (z-score),[5],-0.005
same,glycan array binding signal (z-score),[6],-0.618
same,glycan array binding signal (z-score),[7],0.611
same,glycan array binding signal (z-score),[8],-0.176
same,glycan array binding signal (z-score),[9],0.07
same,glycan array binding signal (z-score),[10],-0.463
same,glycan array binding signal (z-score),[11],-0.375
same,glycan array binding signal (z-score),[12],-0.363
same,glycan array binding signal (z-score),[13],-0.1
same,glycan array binding signal (z-score),[14],-0.51
same,glycan array binding signal (z-score),[15],0.323
same,glycan array binding signal (z-score),[16],0.555
same,glycan array binding signal (z-score),[17],-0.514
same,glycan array binding signal (z-score),[18],-0.375
same,glycan array binding signal (z-score),[19],-0.437
same,glycan array binding signal (z-score),[20],-0.28
same,glycan array binding signal (z-score),[21],-0.494
same,glycan array binding signal (z-score),[22],0.827
same,glycan array binding signal (z-score),[23],-0.506
same,glycan array binding signal (z-score),[24],-0.473
same,glycan array binding signal (z-score),[25],0.306
same,glycan array binding signal (z-score),[26],0.503
same,glycan array binding signal (z-score),[27],-0.465
same,glycan array binding signal (z-score),[28],1.24
same,glycan array binding signal (z-score),[29],-0.209
same,glycan array binding signal (z-score),[30],-0.49
same,glycan array binding signal (z-score),[31],-0.581
same,glycan array binding signal (z-score),Fuc(a1-3)GlcNAc,-0.426
same,glycan array binding signal (z-score),[32],0.093
same,glycan array binding signal (z-score),[33],0.419
same,glycan array binding signal (z-score),[34],-0.35
same,glycan array binding signal (z-score),[35],-0.551
same,glycan array binding signal (z-score),[36],-0.338
